Results published in PubChem BioAssay AID1454 (National Center for Advancing Translational Sciences (NCATS), 2008).
The campaign covered roughly 130,000 compounds. About 550 (0.42%) were called active. The inconclusive results got no clear call from the source; some entries with a clear call stand among them for comparison. The call rests on the fitted dose curve; in most records, active means well fitted inhibition curve with a large enough effect; inconclusive means small, poorly fitted or top-dose-only effect, or effect the other way; inactive means flat fitted curve, though single readings scatter. Potencies of inconclusive entries are left out as doubtful fits.

assay: qHTS Assay for Inhibitors of the ERK Signaling Pathway using a Homogeneous Screening Assay; Stimulation with EGF; settings: HEK293-V1b, EGF-stimulated phospho-ERK AlphaScreen; activity change, negative = inhibition: at the top concentration; further: nearly all actives have a fitted effect of over 55% in size;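 on activity change, negative = inhibition: plate controls were stimulated vehicle wells for no effect and unstimulated vehicle basal for full effect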
Procedure, shortened: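 HEK293 cells stably expressing V1b receptor, serum-reduced (1% FBS) overnight, pretreated 30 min with compound, then stimulated 5 min with 25 nM EGF; phospho-ERK detected by AlphaScreen SureFire. AC50 from Hill fits, normalized to DMSO and EGF.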
Potency means the concentration at half of the fitted maximal effect; tags describe the fitted curve by direction and shape.

Row | SMILES | Potency | activity change, negative = inhibition
1 | O=C(CCc1nc2ccccc2s1)NCc1ccccc1F | inconclusive [inhibitor, single point] | 
2 | OC(CNCCCCNCC(O)C(F)(F)F)C(F)(F)F (stereo unspecified) |  | inactive: -1.2%
3 | COC(CNC(=O)c1cccnc1)OC |  | inactive: 1.13%
4 | O=[N+]([O-])c1ccc(Sc2cccc3cccnc23)c2cccnc12 | inconclusive [inhibitor, partial curve] | 
5 | COC(=O)C1=C(NC(=O)c2ccccc2[N+](=O)[O-])CCS1 | inconclusive [inhibitor, partial curve, poor fit] | 
6 | O=C1/C(=C/c2ccccn2)SC(=S)N1CCc1ccccc1 | inconclusive [inhibitor, full curve, poor fit] | 
7 | C=C(C)CNC(=S)NNC(=O)CCn1c2ccc(Cl)cc2c2cc(Cl)ccc21 | inconclusive [inhibitor, single point] | 
8 | Cc1ccc(OCC(=O)Nc2cc(C)on2)c([N+](=O)[O-])n1 | inconclusive [inhibitor, partial curve, poor fit] | 
9 | COC(=O)C1=C(C)N(Cc2ccccc2)C(=O)/C1=C\c1ccco1 | inconclusive [inhibitor, partial curve] | 
10 | O=C(/C=C/c1ccc2c(c1)OCO2)c1ccccn1 | inconclusive [inhibitor, single point] | 
11 | CC1(C)CCC2=C(O1)c1ccccc1C(=O)C2=O | inconclusive [inhibitor, single point] | 
12 | Cc1ccc(N2CCN(C(=O)c3cccc([N+](=O)[O-])c3)CC2)cc1Cl | inconclusive [inhibitor, single point] | 
13 | Cc1nc2c(-c3ccccc3)c[nH]n2c(=O)c1Cc1ccccc1 | inconclusive [inhibitor, single point] | 
14 | COc1cc(C=O)ccc1OCCOCCOc1c(C)cc(Cl)cc1Cl | inconclusive [inhibitor, partial curve] | 
15 | Cn1c(CCCOc2ccc(Cl)cc2Cl)n[nH]c1=S | inconclusive [inhibitor, single point] | 
16 | O=C1C(Br)=Cc2cccc3cccc1c23 | inconclusive [inhibitor, partial curve, poor fit] | 
17 | COc1ccc(CN(C)CC(=O)Nc2ccc(SC(F)F)cc2)cc1OC | inconclusive [inhibitor, single point] | 
18 | O=S(=O)(c1cnc(Cl)c(Cl)c1)N1CCCc2ccccc21 | inconclusive [activator, partial curve] | 
19 | CC1(C)CC[C@]2(C(=O)O)CC[C@]3(C)C(=CCC4[C@@]5(C)CC[C@H](O)C(C)(C)[C@@H]5CC[C@]43C)C2C1 (stereo partly specified) |  | inactive: -7.11%
20 | CN1/C(=C/C=N/NC(=O)c2ccc([N+](=O)[O-])cc2)C(C)(C)c2ccccc21 | inconclusive [inhibitor, partial curve] | 
21 | COc1ccc(C(=O)CSc2ccc(-c3ccco3)nn2)cc1 | inconclusive [inhibitor, single point] | 
22 | CC(C)CCN1CCN(Cc2cccc(C(F)(F)F)c2)CC1CCO (stereo unspecified) | inconclusive [activator, full curve, poor fit] | 

Row | SMILES | Potency | activity change, negative = inhibition
23 | CC(C)(C)c1nn2cnnc2n(/N=C/c2ccc(O)cc2)c1=O |  | inactive: -5.89%
24 | CCc1cccc(C)c1NC(=S)NCc1ccc2c(c1)cc(C)n2C | inconclusive [inhibitor, partial curve] | 
25 | COc1cc(OC)c(C(=O)CCCCN2CCC3(CC2)NC(=O)NC3=O)cc1NS(=O)(=O)c1ccc(C(F)(F)F)cc1 |  | inactive: 7.54%
26 | COc1ccc(-c2nc3ccccc3c(=O)n2CCOc2cccc(C)c2C)cc1 | inconclusive [activator, single point] | 
27 | C/C=C/c1ccc2oc(-c3ccc(O)cc3)c(C)c2c1 | inconclusive [inhibitor, single point] | 
28 | CCN1c2ccccc2-c2nc3ccccc3n2C1c1cccs1 (stereo unspecified) | inconclusive [activator, single point] | 
29 | CC(C)OCCCNC1=C(Cl)C(=O)c2ccccc2C1=O | active: 28.2 µM | 
30 | O=c1c2ccccc2ncn1CCCCOc1ccc(Br)cc1 | inconclusive [inhibitor, partial curve] | 
31 | O=C(CN1C(=O)/C(=C\c2ccccc2F)SC1=S)Nc1nc2ccccc2s1 | inconclusive [inhibitor, single point] | 
32 | CCOc1ccc(-n2nc3ccc(NC(=O)c4ccc5c(c4)OCCO5)cc3n2)cc1 | inconclusive [inhibitor, single point] | 
33 | COc1ccc(/C(C)=N/Nc2ccc(F)cc2F)c(O)c1 | inconclusive [inhibitor, single point] | 
34 | O=C(Nc1ccc(-c2cn3ccccc3n2)cc1)c1cccs1 |  | inactive: -5.12%
35 | O=C(Nc1ccc([N+](=O)[O-])cc1)c1ccc(Cn2cc([N+](=O)[O-])cn2)cc1 | inconclusive [inhibitor, partial curve] | 
36 | Cc1cc(CNC(=O)COc2cc(F)ccc2[N+](=O)[O-])c2ccccc2n1 | inconclusive [inhibitor, partial curve] | 
37 | Cc1ccc(-n2ncc3c(N4CCCC(C)C4)ncnc32)c(C)c1 (stereo unspecified) |  | inactive: -12.1% [at 57.5 µM]
38 | CCN1CCN(c2cc(C)c3cc(NC(=S)N4CCCCC4)ccc3n2)CC1 |  | inactive: 7.49%
39 | CC(C)Nc1nnc(SCC(=O)/C=C2\N(C)c3ccccc3C2(C)C)s1 | inconclusive [activator, partial curve, poor fit] | 
40 | COc1cc(/C=C/C(=O)c2cccs2)cc(OC)c1OC |  | inactive: -6.56%
41 | Cc1cc2nc(-c3ccc4c(c3)CCC4)ccn2n1 | inconclusive [activator, partial curve, poor fit] | 
42 | COc1cc(C2Oc3ccccc3C=C2[N+](=O)[O-])cc(OC)c1OC (stereo unspecified) | inconclusive [inhibitor, single point] | 
43 | C=CCOc1ccc(/C=N/N2C(=O)C(CC(=O)Nc3ccc(F)cc3F)SC2=NC)cc1 (stereo unspecified) | inconclusive [inhibitor, single point] | 
44 | Cc1ccnc2nc(C(=O)Nc3ccc(S(=O)(=O)N4CCCC4)cc3)nn12 | inconclusive [activator, partial curve] | 

Row | SMILES | Potency | activity change, negative = inhibition
45 | CCCc1c(C(=O)NNc2ccccc2OC)cnn1-c1ccccc1 | inconclusive [inhibitor, partial curve] | 
46 | Cc1nc2sc(C(N)=O)c(N)c2c2c1CCCC2 |  | inactive: -10.4% [at 57.5 µM]
47 | CC1CCCCN1C(=O)CSCC(=O)Nc1nc(-c2cccs2)cs1 (stereo unspecified) | inconclusive [inhibitor, single point] | 
48 | Cc1ccc2c(c1)C1CN(C)CCC1N2Sc1ccccc1[N+](=O)[O-] (stereo unspecified) | inconclusive [inhibitor, partial curve] | 
49 | CN(C)c1ccc(N=Nc2ccc(S(=O)(=O)O)cc2)c2ccccc12 | inconclusive [inhibitor, partial curve] | 
50 | COc1ccc(C2SCC(=O)N2CCc2ccc(OC)c(OC)c2)cc1 (stereo unspecified) | inconclusive [inhibitor, single point] | 
51 | O=[N+]([O-])c1cc(S(=O)(=O)C(F)(F)F)ccc1N1CCN(c2ccccc2)CC1 | inconclusive [inhibitor, partial curve] | 
52 | C=CCn1c(SCC(=O)NCc2ccc3c(c2)OCO3)nnc1-c1cccnc1 | inconclusive [inhibitor, partial curve, poor fit] | 
53 | Cc1ccc(S(=O)(=O)N2CCOCC2)cc1C(=O)NNC(=O)c1ccoc1C | inconclusive [activator, partial curve] | 
54 | COc1cc(/C=C2\SC(=S)N(NS(=O)(=O)c3ccc(C)cc3)C2=O)ccc1O | inconclusive [inhibitor, single point] | 
55 | COC(=O)c1sc(NC(=O)COc2c(C)cccc2C)nc1C |  | inactive: 5.74%
56 | O=c1[nH]cnc2c1ncn2[C@H]1CC[C@@H](CO)O1 | inconclusive [inhibitor, single point] | 
57 | COc1ccc(-n2ncc3c(N4CCC(C(N)=O)CC4)ncnc32)cc1 |  | inactive: 5.88% [at 57.5 µM]
58 | CNC(=O)/C(C#N)=C/c1ccc(-c2nc3ccccc3s2)o1 | inconclusive [inhibitor, partial curve] | 
59 | CO/N=C/C(=N\Nc1ccc(OC)cc1)C(=O)c1ccc(F)cc1 | inconclusive [inhibitor, single point] | 
60 | N#Cc1sc2nc(C3CC3)cc(-c3ccc(Cl)cc3)c2c1N | inconclusive [activator, partial curve] | 
61 | Cc1[nH][nH]c(=O)c1C(c1c(C)[nH][nH]c1=O)c1cn(Cc2ccc(F)cc2)c2ccccc12 | inconclusive [inhibitor, single point] | 
62 | CN(C)CCCNc1cc(C(C)(C)C)nc2c(-c3ccc(Cl)cc3)cnn12 | inconclusive [inhibitor, single point] | 
63 | CC(C)(C=O)C1=CC(=O)c2ccccc2C1=O | inconclusive [inhibitor, single point] | 
64 | CCC(C(=O)Nc1sc(C(N)=O)c(C)c1C(=O)OC)c1ccccc1 (stereo unspecified) | inconclusive [inhibitor, single point] | 
65 | CCC(C)(C)C1CCC(=NNC(=S)Nc2ccccc2)CC1 (stereo unspecified) | inconclusive [inhibitor, partial curve] | 
66 | CCN1CCN(c2ncnc3c2cnn3-c2ccc(Cl)cc2)CC1 | inconclusive [inhibitor, single point] | 
